In the supplement of paper PMC10126150 one finds switch fluorescence ratio data, which are given here for 67 sequences.

Sequences with one replicate were seen in a single cluster, so their values are uncertain.

This series relates to ATP. The series is described as follows: switch fluorescence ratio, 500 uM ATP over buffer (Cy3 cluster intensity, sum of 5 cycles each) (fold (ratio)); higher = stronger signal-on switching upon ATP binding; sequences stand for … in TCGTCGGCAGCGTCAGATGTGTATAAGAGACAGTTTTTTTTTTTTTTTTTTTTTTTTT…TC. The conditions noted are these: aptamer strand: ATP DNA aptamer (quencher-CACCTGGGGGAGTATTGCGGAGGAAGG + anchor), 100 nM annealed; ATP concentration: 500 uM; one replicate. The essentials:
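Switching-strand clusters labelled with Cy3 on a modified Illumina MiSeq flow-cell were annealed to 100 nM quencher-labelled ATP aptamer, imaged in selection buffer, and re-imaged after 15 min with 500 uM ATP at 22 °C. This was done over five cycles with NaOH stripping and re-annealing in between. The fluorescence ratio is summed target-cycle over summed buffer-cycle Cy3 intensity per cluster, averaged per switch-domain sequence, excluding clusters outside 100-1000 RFU.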
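Further: ATP exposure 15 min at 22 °C before imaging.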

For GTTTTGACGG, the switch fluorescence ratio is 1.02.
CTTAGTACCA: the switch fluorescence ratio worked out at 0.915.
The result for TGATTTAGAC reads 0.979; that for AGGGAACACT, 1.04; that for TGGACTCTT, 0.965.
The result for TGGTTACTTT reads 0.964.
Next, ACCGCGCGGC: 1.
As for TCCCTTCTGT, the switch fluorescence ratio was determined as 1.04.
For the sequence TACGGCACTG, the switch fluorescence ratio is 1.67.
The result for TATTACTATA reads 0.989; that for TCCGCCAAA, 1.37.
The result for GGTCGTCAAC reads 0.997.
As to AAACACCAAG, the switch fluorescence ratio is 1.
Next, CATGATTGAG: 1.01; TGGGCTTCTG: 1.01; CTCCGTAGGC: 1.01.
For the sequence ACGGTGATTC, the switch fluorescence ratio was 1.07.
Take AAGATCAAGT: the switch fluorescence ratio was found to be 1.03.
Next, CGTGGACATG: 0.861.
The result for AATTGTCGG reads 1.03; that for GATCTAAGCC, 0.97; that for TATCTTAGTG, 0.984.
Next, CTATTCTAGA: 1; TTGCACGAGC: 1.03.
With CCGTTGTGTA, the switch fluorescence ratio was determined as 1.03.
CCCTGCAAAG: the switch fluorescence ratio turned out to be 5.79.
Consider TGATGGGCAC, for which the switch fluorescence ratio stood at 1.05.
Next, AGTCCGACGT: 1.46; GATTTTCGGT: 1.04; CATGCGAGTT: 1.04.
Next, TAACTCGGTG: 1.04; ATCGGAACCG: 1; GCGGTTCGCC: 1.02.
The result for ATATGGTTGC reads 1.03; that for GGGCAACTT, 1.01; that for TTCCTAGGTG, 5.91.
Consider TAGGGTAGGG, for which the switch fluorescence ratio was 0.99.
Next, TTGGTCAGTT: 0.989; AAGTACATAA: 1.34; AGAAATATAC: 1.
In the case of TTGTTGACTC, the switch fluorescence ratio amounted to 0.996.
Turning to ACATATGTTG, the switch fluorescence ratio came out at 0.974.
The result for ATTATATCTA reads 1.02.
The result for ATGCGAAAAG reads 0.995.
The result for AGGGTGGAG reads 1.06; that for AAAATGTTGT, 0.969.
For CTCGCCCGGG, the switch fluorescence ratio worked out at 3.34.
The result for TAGTTTTAAT reads 0.988.
The result for GAACTGTGAA reads 0.973; that for ATAAATAGAT, 0.982; that for ACTTAAAAGA, 1.04.
Next, GATTACTCTT: 1.07; GTGACAACTA: 0.994; CATTGCGCAT: 1.26.
Consider TATCACGTTG, for which the switch fluorescence ratio was determined as 1.02.
Next, ACCTGGAAGT: 0.991; TATCTCATAT: 0.975.
Next, TTGGCCTCGT: 0.987; GCATTTTAGT: 0.963; AGGTAGGC: 1.04.
In the case of AGTGGGATAC, the switch fluorescence ratio was 1.1.
With TGCCCGATCA, the switch fluorescence ratio was 0.967.
Next, GGAGGTTACC: 1.07; ATGAATCAC: 0.972.
Next, TATATGATAT: 0.979; CAGATATGTC: 0.997; TAATCGTAAG: 1.07.
